Data reported in PMC6212790.
Some of the results follow. At the low end of the ranking, values are background and their order means little.

biological target: T1, GST-Rok (full length) (UniProt O34857); assay: protein binding microarray; conditions: Rok is a gene silencer of Bacillus subtilis; high values mean tight binding; most listed sequences are background and not binding sites; double strand, one strand shown;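 further: rank score from −0.5 (least bound) to 0.5 (best bound)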
T1 sequence: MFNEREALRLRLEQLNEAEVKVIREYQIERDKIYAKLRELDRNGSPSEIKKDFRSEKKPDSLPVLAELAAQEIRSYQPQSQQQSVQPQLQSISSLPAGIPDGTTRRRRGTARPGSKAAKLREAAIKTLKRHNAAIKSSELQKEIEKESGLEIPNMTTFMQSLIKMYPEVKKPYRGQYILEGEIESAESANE

Sequence | binding signal [E-score]
AAATGATT | -0.0952
ACCGCTAG | 0.138
ACCGGGCA | -0.206
AACAAATT | 0.215
CCCCATAG | -0.319
AATCGCGG | 0.0346
CCCGATCC | -0.0948
CTCGATTA | 0.124
ATCATGCC | 0.0705
AAACCGAA | 0.147
CCGGGGCC | -0.313
ATTCGTTG | 0.144
GCCGGGAA | -0.201
GTAGCCTA | 0.06
AAATGATA | 0.37
TAGCTGGA | -0.163
ATTCACTA | 0.247
CGCGCAAA | 0.104
ACAAGCTG | -0.138
TATCGACA | 0.121
AGAATGCT | 0.0696
ATTACGGC | 0.00334
GACCTCTC | -0.376
GGCAGGCA | -0.26
CCGCTGGA | -0.31

Sequence | binding signal [E-score]
AATCTCGA | 0.21
ATTCTTGC | 0.103
TAGCCCCA | -0.173
ACTCGTTG | 0.148
CTTCGAAG | 0.0549
GCCTGAGC | -0.264
GGCCTACC | -0.0792
ACGAACAT | 0.143
ACCGATTA | 0.0737
GTAAACAC | 0.125
GTAGACCA | -0.0718
AGCAAAGA | 0.0273
CCTCAACG | -0.0548
AGGTATCA | 0.177
ACTATTGA | 0.288
GGTCAAAC | -0.0283
ATTTTAAC | 0.209
ACCGATAG | 0.0776
ACCGATCT | 0.211
AGCGCTAC | 0.128
CTATTGTC | -0.0651
CGAGTTGA | 0.112
AAACGTCT | -0.171
AGCTCCGC | -0.314
GATATCCC | -0.129

Sequence | binding signal [E-score]
CTTATCAA | 0.085
CCGTACTC | -0.0271
CAAGGATG | -0.0788
GGTAACTA | 0.305
ACAGCGGG | -0.233
GCGAGCAC | -0.246
AAGGCTTC | -0.328
ATACCTAA | 0.276
AGAGAAAG | -0.146
AAAAACCG | -0.0149
GCTGGTAC | 0.115
GTTCACAA | 0.00461
ACCCTAAT | -0.166
GATAGTCC | -0.127
GACGAAGA | 0.0676
CCATGGCG | -0.139
CCGAGTGC | -0.17
CAGCGGGC | -0.192
TCGCAGCA | -0.169
CCTTCCTA | -0.242
ATAGAGGA | -0.116
ATCTGCGA | 0.0364
CACGGCGA | -0.065
AACGGCAG | -0.296
CAAGACTC | -0.212

Sequence | binding signal [E-score]
GTTACAAC | 0.155
AACTTTAA | 0.168
CCCATGAG | 0.0171
CGAGGGGA | -0.339
TCTAGACA | 0.125
ACCCGGAG | -0.0128
CTTACCAA | 0.0375
ATAACGAC | 0.15
CGTCCGTC | -0.247
ACTCTCAT | 0.162
ATTTCGAC | 0.106
ACCCAACC | 0.0888
CTATGGGC | -0.011
AATGCTAC | 0.219
AGCCCTGG | -0.272
AAGAAGCC | -0.22
ATTTCTGG | 0.149
CTGAGGTA | 0.125
CCAGCGTA | -0.151
AACTGCAA | 0.141
CTTCCCGC | -0.286
AGGATTTG | -0.093
CGTGGGGC | -0.361
GCGAAGAC | -0.171
ACGAGTTC | -0.00762

Sequence | binding signal [E-score]
GGTGCGAA | -0.123
GCAAAGAC | -0.0851
GACCTATA | 0.279
CCGCGGAA | 0.0245
CATTGGCG | -0.252
ATCAGCCG | -0.321
CAAGGGAA | -0.16
GCTAGGCA | 0.0262
GTTCCCAA | -0.0959
GTAAGTGA | 0.0686
ACGGCGAG | -0.177
AAGTTCAC | 0.0366
CAGTCGGG | -0.157
AAAGGTCT | -0.116
GCTGGCAC | -0.181
AGTAGTCA | 0.233
ACATAAAA | 0.0858
CACTGCAC | 0.0921
CCCAAATA | -0.149
CTTCCGTC | -0.278
GCGCTCCC | -0.413
AGCCCGGC | -0.253
CTCTCCGA | -0.125
CAAGGTAA | 0.157
ACTCATGA | -0.0997

Sequence | binding signal [E-score]
ATGCTGCA | 0.0185
ACGAATCA | 0.131
GGCGTAGA | -0.0468
ACGGCTCT | -0.0378
ATGGTCAA | 0.103
CACAGCTG | -0.139
AATTGGAT | 0.111
CCGCTGTA | -0.0416
GGACGACC | -0.28
GGTAGTAC | 0.339
AAAAGGGA | -0.297
AAGGGCAA | -0.219
CCCAGCAA | -0.251
ATGTCCTA | -0.00119
AAACTTTA | 0.0513
CTTATTAA | 0.144
AGGAGAAC | -0.256
AAACCTTC | 0.00352
ACAAGTTA | 0.243
AAGATATT | 0.319
GGACGGAC | -0.328
GATGGGCC | -0.241
CTAATAAC | 0.101
CCCTGCGA | -0.361
AATTGCAT | 0.0907

Sequence | binding signal [E-score]
TATCATCA | 0.214
CAGTACTG | 0.0294
ACCCTCAC | -0.366
AATACCGT | 0.291
GTTCTATA | 0.29
CGCTTCGA | 0.0676
ACCTAAGT | 0.0115
ACGGACTA | 0.069
AGAAGCTC | -0.0308
CGTGCGGA | -0.0584
GCATGGAA | -0.193
GGCGCCAA | -0.306
AATGTTTA | 0.177
AAATACCC | 0.131
GAATGTCC | -0.146
ACTGTTCC | -0.0752
CTACATGC | 0.308
GTCCCCCA | -0.206
CGAACAGA | 0.178
AACGTACT | 0.187
AAGTTCTG | 0.105
CTAGCACC | -0.0148
GTTCCCCA | -0.264
CCGTGGTA | 0.0728
CGCATACG | -0.00965

Sequence | binding signal [E-score]
GCCAGATA | -0.191
TAAAGATA | 0.246
ACGGTTGA | 0.0819
CCACGCAA | -0.0448
ATCCTAAC | 0.0663
ATTCGGCA | -0.0204
AGACAGAA | 0.0386
CTACCAAC | 0.164
CACTACTC | 0.00906
TACATCTA | 0.382
TAAGCGAA | -0.0856
ATTTCGGG | -0.222
ACAAAATC | -0.0365
CAGACATC | -0.168
CAGTTTCG | 0.0836
GACAGTTA | 0.161
CAACAGCA | -0.115
ACTACGAG | 0.145
CGTATACC | -0.0224
GGGAACAC | -0.26
CATGTCCG | 0.0148
ATTGCTAG | 0.236
ATCCTTTC | -0.0311
AACATTAC | 0.214
AAATTTGA | 0.115

Sequence | binding signal [E-score]
AGTGACAC | 0.0501
CTCTATAC | 0.033
ATGGCCTC | -0.248
ACGTCGAA | 0.111
AACTTTCC | -0.0562
GAACGGAC | -0.365
TCGCCTCA | -0.0967
ACTAACTA | 0.348
AGTATTTC | 0.332
CTCCTAAC | -0.0628
AAATATTA | 0.305
CCTACAGG | -0.24
GATCCGAC | -0.175
GAGGCGAC | -0.133
ACCTCACA | 0.0258
GACGACGC | 0.0038
CACCTGTA | 0.101
CTGATAAC | 0.0762
GCTCAAAC | -0.11
CCGTCGAG | -0.0127
TAACCCTA | 0.00689
AACTCCTC | -0.121
ATCCATCC | 0.0458
AGCTCACG | -0.193
CTAACAAC | -0.119

Sequence | binding signal [E-score]
CATATTTC | 0.287
ACGGGTGA | -0.113
CAATAAGA | 0.0955
CAAGCTTC | -0.192
CGTGTTCA | 0.0479
AGGAACTG | -0.0117
AGTCGGTG | -0.0768
AGGTTAAA | 0.0464
CTCATTGC | -0.218
AACTGACA | 0.116
GGCATGGA | -0.224
GTAGGGGA | -0.238
CAAGAGAG | -0.00957
CGTTACTA | 0.34
GCTTTGTA | 0.135
AAGCCAAC | -0.0856
CATGACTA | 0.253
ATCTTTGA | 0.224
AAGCATCT | -0.0696
ACAAGAGA | 0.000275
ATGGGAGG | -0.252
CTAACCCC | -0.32
GCGAGACA | -0.175
AGAGAACT | 0.126
TACCTGGA | 0.082

Sequence | binding signal [E-score]
ATCTAGGG | 0.0815
CTCCTATA | 0.171
AGTTCTTG | -0.017
ATGCGATC | -0.042
AGTGAAAC | -0.00421
GTATTTGA | 0.0869
CCATTAAC | -0.108
ACCGGCTA | -0.0445
CGAAGCTA | 0.0592
TATATATA | 0.477
TGTTGTAA | 0.142
TCAAGCGA | -0.318
CGTGGTCA | -0.0319
ACCCAGTC | -0.0752
ACCAATTC | 0.207
TAACGCTA | 0.126
ACCAACGG | -0.0314
AAGAGAAG | 0.0393
CATCGAGC | 0.0473
AGGCAGCC | -0.279
ACAAGCCT | -0.083
CCCCACCC | -0.407
ACATTTTA | 0.24
AATTAAGT | 0.273
AGTCTCTA | 0.0503

Sequence | binding signal [E-score]
GTCGCGGA | -0.0939
ATGGTAAA | 0.296
AGTTGCCC | -0.0525
CCAATGGA | -0.0187
GCATTCGA | 0.114
CCTAGAGG | -0.202
AACATCAC | -0.0378
GAAATATC | 0.223
GAGAATTA | 0.198
CAAGCATA | 0.0305
CAGCCGGA | -0.183
CCATCCAG | -0.0984
TATGAAAA | -0.0441
ACACCTGG | -0.181
AATTATTC | 0.232
TAGACCGA | 0.0209
CAAAGGCC | -0.379
AGGCGCCC | -0.334
AACAGCGC | -0.139
CACCATAG | -0.0481
GAAACACA | 0.0318
GATACAGA | -0.0115
ACATCGCC | -0.166
CATTAATG | 0.281
CGCACCCC | -0.41

Sequence | binding signal [E-score]
GTGCCTCA | -0.181
GTAAGACA | 0.088
ATCTTCTA | 0.268
ACCGGCGA | -0.0876
CTGAGTAA | 0.0839
GTGGGATA | 0.0946
CCATTGGG | -0.0934
ATTCACCC | 0.0731
ATGATTGC | 0.0392
CGTCGACA | -0.189
TCGTACCA | 0.0368
AGACCGTA | -0.0652
AACACTCT | 0.0485
CCTCTTCC | -0.275
CACTAGCA | -0.0567
GCAGTTCA | 0.00898
CATCACGG | -0.246
CGATCCGC | -0.095
CACAATAC | 0.0701
GTTGCAAA | 0.0994
ACGAGGAA | -0.201
ACATGCTA | 0.365
ATAGCGCG | 0.307
ACCATCGC | 0.0647
AGGTACCG | 0.17

Sequence | binding signal [E-score]
CCACCGCG | -0.355
AGAGGTAC | 0.0913
GCAAAGCA | -0.0886
GCTGTGAC | -0.0172
ACCGAGCG | -0.175
GAGCGTTA | -0.0279
ATTGCCTG | -0.0581
ACATATGA | 0.069
ACTCTTGA | -0.0472
CGGAAGAA | -0.18
GTGTATCA | 0.129
CACGACCA | -0.0267
AGAGCGGA | -0.283
AAAGCGCC | -0.185
CTCCGCTA | -0.000908
CGTATAAA | 0.119
GCTCTCGA | -0.144
AGCATTTG | -0.0884
CACAATGA | 0.106
